The text below walks through data of ChEMBL document CHEMBL4888484, “Replenishing the malaria drug discovery pipeline: Screening and hit evaluation of the MMV Hit Generation Library 1 (HGL1) against asexual blood stage Plasmodium falciparum ,using a nano luciferase reporter read-out” (2022).

The structures appear in SMILES notation. The campaign covered roughly 150,000 compounds. About 540 (0.36%) showed an effect of 50% or more. This is one part of the list.

The test deals with Plasmodium falciparum. Briefly: Primary screen in NF54 nanoGlo assay, in single point, at 2uM, 72h; a lower Z score goes with more inhibition. It counts as functional, Erythrocyte. To be noted: timepoint 72 hour.
For `Cn1cnc2[nH]c(=O)cc(C(=O)NCc3n[nH]c(C(C)(C)C)n3)c21`, the “% Inhibition” value is given as -14% and the Z score is reported as 1.72.
In the case of `O=C(NCc1cccc(F)c1)c1cc(OCc2ccccc2)nc2ccccc12`, the “% Inhibition” value was -7% and the Z score is 0.65.
For `CN(C)c1ncc2c(n1)CCC[C@@H]2NC1CCOCC1`, in that order: -5% and 0.86.
Taken in the same sequence, the figures for `FC(F)(F)C1CCN(Cc2ccccn2)CC1` were -1% and 0.19.
Taken in the same sequence, the figures for `CCn1c2ccccc2c2nnc(N3CCN(c4cc(Cl)ccc4C)CC3)nc21` were -10% and 1.93.
Regarding `Cc1cnc(C2CC2)n1[C@H]1CCN(Cc2cn(C)c3ccccc23)C1`, the “% Inhibition” value was -8% and the Z score was determined as 0.96.
For `Cn1c(C(=O)N2CCN(c3ccccn3)CC2)cc2cc(F)ccc21`, in that order: -5% and 0.6.
For `CN(C(=O)NC1CCCCC1)C1CCN(c2ccccn2)CC1`, in that order: -1% and 0.17.
Regarding `CNc1ncccc1C(=O)N[C@@H]1COCC[C@@H]1OCc1ccccc1`, the “% Inhibition” value was -10% and the Z score stood at 0.96.
For `O=C(NCc1ccc([C@H](O)c2ccccc2)s1)NC1CCOCC1`, in that order: -1% and 0.14.
Taken in the same sequence, the figures for `O=C(Nc1cc(CCc2ccccc2)n[nH]1)c1cccc[n+]1[O-]` were 12% and -1.36.
For `O=C(CCn1cnnn1)Nc1n[nH]c(-c2ccc(F)c(Cl)c2)n1`, in that order: -13% and 1.73.
In the case of `CN(C(=O)c1cccc(OCC(=O)O)c1)[C@H]1CC[C@@H](C(F)(F)F)CC1`, the “% Inhibition” value came out at 18% and the Z score was -2.11.
Take `O=C(NC[C@H]1CCCN(Cc2cc3c(cc2Cl)OCO3)C1)c1cccnc1`: the “% Inhibition” value turned out to be 1% and the Z score is -0.1.
Taken in the same sequence, the figures for `C=C(C)COc1ccc(NC(=O)[C@@H]2CCCCCN2C)cc1` were -7% and 0.68.
Taken in the same sequence, the figures for `Cc1ccc(S(=O)(=O)NC2CCOC(C(C)C)C2)cc1Br` (centres undefined) were -5% and 0.75.
As to `C[C@@]1(C(F)F)CN(C(=O)Nc2ccn(-c3ccc(Cl)cc3C#N)n2)CCO1`, the “% Inhibition” value is recorded as -3% and the Z score amounted to 0.47.
In the case of `COCCn1nnnc1[C@@H]1CN(Cc2ccc(N(C)C)nc2)CCO1`, the “% Inhibition” value came out at 1% and the Z score is given as -0.13.
Consider `COc1cccnc1NC(=O)c1cc(C(C)C)oc1C`, for which the “% Inhibition” value is listed as -1% and the Z score was found to be 0.13.
Taken in the same sequence, the figures for `COc1ccc([C@@H](O)C(=O)N(C)Cc2cnc3ccccc3c2)cc1` were -23% and 3.05.
For `CN(CC(=O)Nc1nc(=O)cn[nH]1)S(=O)(=O)c1ccc(Br)cc1`, in that order: 1% and -0.15.
For `CCN(CC(F)(F)F)C(=O)C(=O)Nc1ccccc1Cl`, in that order: 7% and -0.82.
On to `Cc1cccc(C(=O)NC(C)C(=O)N2CCCC2c2csc(C)n2)c1` (centres undefined), for which the “% Inhibition” value came out at 0% and the Z score is 0.04.
As for `CC1(C)C(=O)NCCN1C(=O)CCS(=O)(=O)c1ccc(Cl)cc1`, the “% Inhibition” value stood at 2% and the Z score is -0.22.
Take `Cc1ccc(CNC(=O)[C@]2(C)Cn3cnc(C(=O)NCc4ccc(C)o4)c3C(=O)N2C2CC2)cc1`: the “% Inhibition” value was -12% and the Z score was 1.25.
Taken in the same sequence, the figures for `CN(CC[C@H]1CCCCN1C)C(=O)c1ncoc1-c1ccc2c(c1)OCCO2` were 2% and -0.19.
Taken in the same sequence, the figures for `COc1ccc(F)c(CN2CCC[C@@]3(CCN(C(=O)Cn4cccn4)C3)C2)c1` were 8% and -0.67.
For `CCC(C)(C)NC(=O)Nc1cccc(Cl)c1`, in that order: -1% and 0.15.
Take `CN=C(NC)NCc1cc2c(s1)CCC2`: the “% Inhibition” value is -5% and the Z score was found to be 0.65.
For `CC(C)(C)Oc1ccc(-c2nc3ccc(-c4ccc5c(c4)OCO5)cc3o2)cc1`, in that order: -29% and 2.53.
For `CC[C@](C)(O)COc1cccc(Oc2ccncn2)c1`, in that order: -4% and 0.47.
For `O[C@@H]1CCN(C2CCN(c3cccc(-c4ccco4)c3)CC2)C1`, in that order: -3% and 0.4.
As for `COc1ncc(NS(=O)(=O)c2cccc(F)c2)c(N(C)C)n1`, the “% Inhibition” value was -9% and the Z score is given as 1.64.
For the compound `CC1NCCCC1NS(=O)(=O)Cc1ccccc1Cl` (centres undefined), the “% Inhibition” value came out at 8% and the Z score is -1.04.
For `CNc1nc(C(=O)NCc2cc(N3CCOCC3)ncn2)cs1`, in that order: -2% and 0.34.
Taken in the same sequence, the figures for `CCC(CO)Nc1cc(NC2C3CCOC3C23CCC3)ncn1` (centres undefined) were -9% and 1.72.
For `CC1CC(C)CN(S(=O)(=O)c2ccc(-c3nc4ccccc4s3)cc2)C1` (centres undefined), in that order: -8% and 0.93.
Take `O=C(Nc1ccc2snnc2c1)N1CCOCC1`: the “% Inhibition” value is recorded as -12% and the Z score came out at 2.06.
Taken in the same sequence, the figures for `CCc1nnc(COC(=O)c2ccc(S(=O)(=O)N3CCCC[C@@H]3C)cc2)o1` were 2% and -0.24.
Taken in the same sequence, the figures for `COCCCC(=O)Nc1cc2c(=O)[nH]cnc2cc1F` were -18% and 2.51.
Taken in the same sequence, the figures for `O=C(Cc1cncnc1)NCc1ccncc1OCC(F)(F)F` were -12% and 1.5.
Regarding `CO[C@@H](CNC(=O)c1n[nH]c2c1CCC2)c1cccc(Cl)c1`, the “% Inhibition” value was -24% and the Z score amounted to 2.85.
